The supplement of paper PMC11417369
± gives the standard deviation of the averaged measurements. The list shows a part of the results.

tested on: PfAP2-EXP AP2 domain (GST-tagged); assay: gcPBM binding intensity (ln(normalized median fluorescence intensity)); higher = stronger DNA binding
Method in brief: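 DNA-binding domains from P. falciparum, fused to GST and produced in E. coli, were put on an Agilent 4 × 180k double-stranded probe array for 1 h in 1× PBS holding 1% milk, 0.2 mg/ml BSA, 0.5% salmon testes DNA and 0.03% Triton X-100. Probes were primer-extended, 36 bp long and drawn from intergenic genomic regions, with negative controls included. After Alexa488 anti-GST antibody detection and a 488 nm scan, binding intensity was set as the highest Masliner-normalised natural-log median intensity across replicate spots of either probe orientation.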

Row | Sequence | gcPBM binding intensity (ln)
1 | TTTTAATATTTTAAGAGTACAGAAATATATAATATG [XGTACX_site4955] | 8.62 ± 0.46
2 | AGAGACACTTTTTATTGTACAAGAGGAGGTTACCTT [XGTACX_site8768] | 8.59 ± 0.57
3 | CATTATGTTGTAAATACACACATACAGATACATACA [CACACA_site4565] | 8.68 ± 0.42
4 | TTTTTTGGTTTTCATGCACACAATTTATAAATCTAT [CACACA_site3106] | 9 ± 0.18
5 | TAAAGGCAAACAAACACACACACATAAATACAGATA [CACACA_site5204] | 8.86 ± 0.5
6 | ATATGCGTTTGCAAATGTACATATTATTTATATATA [XGTACX_site7128] | 9.15 ± 0.45
7 | ATAATTCTTTTACTGTGTACATATTATCACTTATTT [XGTACX_site2456] | 9.04 ± 0.33
8 | TGTAATTGTTTAAAGGGTACATATATCAGATGTCTT [XGTACX_site5877] | 8.34 ± 0.45
9 | TGGAAACAATGACACACACACAAAAAAAAAAAAAAA [CACACA_site7494] | 8.24 ± 0.5
10 | TTTTGTTTTTGTAGAGTGCATAAAGAAGATATGTAT | 8.81 ± 0.25
11 | TTATCTCTACAAAGTGCACACACGTAAAAACATATA [CACACA_site3957] | 9.08 ± 0.37
12 | GTAGGGGAAAAAAAAACACACAAAAAACAACAGATC [CACACA_site1187] | 8.94 ± 0.55
13 | TATAAATACTTAGAAACACACAAAAATATTTTATAA [CACACA_site7259] | 8.54 ± 0.46
14 | AAAAATTAAAATATAACTAATTAATTTGTATTCATT [CACACA_negctrl_site1633] | 7.87 ± 0.34
15 | ATAATAATATTTCTATGTACTTATTTTATGTATTAG [XGTACX_site1747] | 8.51 ± 0.4
16 | AACACATACAGATATGCACACATTTTATTCCATTAT [CACACA_site5565] | 8.84 ± 0.34
17 | TTTTTATATTTCAACATATCACAATTTTATATATCT [CACACA_negctrl_site178] | 8.45 ± 0.34
18 | TATTTATAAATGAACACACACGCAATTTGAATCGAA [CACACA_site3371] | 8.92 ± 0.52
19 | ATATATATATTATATGCACACTTATATTTCATTAGA [CACACA_site5439] | 9.29 ± 0.12
20 | GAATATAAACCTATTACACACATCTATATGTACATT [CACACA_site1914] | 8.63 ± 0.41
21 | CTATATCATTTTCTAGCACACACATTGTTATTACCT [CACACA_site8204] | 8.9 ± 0.39
22 | ATTTTTTTTATTATTACACACATATAACAAAAAAAT [CACACA_site6934] | 8.48 ± 0.43

Row | Sequence | gcPBM binding intensity (ln)
23 | TTTTTTATGCTAACTTCTTTTTCCTTATAAAATTGG [TGCATGCA_negctrl_site598] | 8.68 ± 0.56
24 | AAAAAGAAAAAATATATTCGTCTATTATAAACAATA [CACACA_negctrl_site648] | 8.16 ± 0.42
25 | TAAATATTAACAATCGCACACATATTATTTTTCCAA [CACACA_site1626] | 8.31 ± 0.42
26 | AAGGTAAACAGACACACACACATACAAAAAAAAAAA [CACACA_site3768] | 8.64 ± 0.47
27 | GAATATATATTCATATGTACACAATTTATGTATTAT [XGTACX_site4719] | 8.58 ± 0.2
28 | ATATAAATATAGTGTGCACACACATAATATATATAT [CACACA_site8713] | 9.38 ± 0.057
29 | TATATTTTAAAATTATGTACATATATAGATAAATGT [XGTACX_site1349] | 8.56 ± 0.38
30 | AAAATAAATTGTGAAGGTACACAAATTATTATGTGG [XGTACX_site4196] | 8.42 ± 0.33
31 | ATATATATATATAATACACACATCATAAAATATGTA [CACACA_site2518] | 9.89 ± 0.18
32 | AAATACAAAATTGTTACACACATATTAATTATGACA [CACACA_site476] | 8.29 ± 0.37
33 | TATCATCATGTATGTACACACATACAGATATTATGT [CACACA_site4888] | 8.46 ± 0.28
34 | TATATATATATATATATATATATATATATAATATTA [XGTACX_negctrl_site558] | 10.1 ± 0.42
35 | AATCATATTTAGATTACACACAGTTTAAATATTTTA [CACACA_site1263] | 8.27 ± 0.42
36 | TGTAATGTTTACAACACACAAATTATAAATACAAAA [CACACA_site5047] | 8.55 ± 0.4
37 | TATTTAAATGGATGCACACATGCATTAAATAAAATA [CACACA_site3433] | 8.57 ± 0.11
38 | TACAAACAGACATATACACACAAAAAAAAAATAAAA [CACACA_site2562] | 8.63 ± 0.54
39 | TCGATATATAGACACACACACTTTTAATAATTAAAT [CACACA_site7726] | 8.55 ± 0.42
40 | TTATGCAGATAAAAGAGTACATATTCGTTACATACA [XGTACX_site2849] | 8.56 ± 0.38
41 | TTAGTAAATACATTTGCACACATTATTTTTTAACAT [CACACA_site5448] | 8.56 ± 0.2
42 | TATATATTTTTTTCATGTACTTATTATATATATATA [XGTACX_site5321] | 9.58 ± 0.16
43 | ATGAATATATATATTTGTACATATGTATATATATAT [XGTACX_site7527] | 9.71 ± 0.15
44 | GGAAATATAAAATCATGTACATATGTATATATAATT [XGTACX_site5491] | 8.7 ± 0.33

Row | Sequence | gcPBM binding intensity (ln)
45 | AGTATAGATGTATACACACACCAAACGTTAAAAAAA [CACACA_site7443] | 8.71 ± 0.53
46 | ATATGGCACATATGTACACACGTATAGATAATATTA [CACACA_site5162] | 8.88 ± 0.33
47 | ACATACATTTTTAAATGTACATATATATATATATAT [XGTACX_site6751] | 10.2 ± 0.61
48 | CCGATATAATGGAAAACACACAAAAGATATATATAT [CACACA_site2683] | 9.555 ± 0.064
49 | TTTCAAAATTTTTATTTTAAATAAACATTTATAAAA [CACACA_negctrl_site1588] | 7.9 ± 0.37
50 | ATTTATTTATTTATATGTACTTAAATGAAAGGAATA [XGTACX_site6024] | 8.52 ± 0.24
51 | AATATTATATGGACGTGTCCACATAAACCTATATAT [XGTACX_site2053] | 8.51 ± 0.39
52 | ATATAAAAAAATTGCACACATAAATATATACATATA [CACACA_site1218] | 8.3 ± 0.37
53 | TTTATGTACAGACATATACACACCTCTATAATATAT [CACACA_site730] | 8.78 ± 0.35
54 | TCACAAAAAGAACATTGATATTATTATAAAATCGTC [GTGCAC_negctrl_site177] | 8.34 ± 0.38
55 | GATACATAGAAACACACACACATACATATATACATA [CACACA_site3438] | 8.68 ± 0.51
56 | TATTGTAATATTATATATATCTATTATGTATATAAA [CACACA_negctrl_site454] | 8.12 ± 0.35
57 | AATTATATATTAAAAAGTACAAGTTAATATAATATA [XGTACX_site2737] | 8.62 ± 0.42
58 | ATTAATAATCGAAAGGTGCACTTTGATTTGATAACA | 10.2 ± 1.7
59 | TTATTATTTTATCGTAGTACACCTAAATTATAAAAC [XGTACX_site5251] | 8.56 ± 0.32
60 | TAATTAAAATTATTTATAAATTAGTATATTTCTATA [CACACA_negctrl_site663] | 7.94 ± 0.28
61 | TTACAAAAATTTTGTTCACACATAAAAATATGTTAC [CACACA_site5740] | 8.31 ± 0.4
62 | TAATAAATTATTTTTTATTATTTTAATAACACTTCA [CACACA_negctrl_site3] | 7.95 ± 0.28
63 | ATATATTTTTCAAAATGTACAAATAATTAAATACCA [XGTACX_site875] | 8.45 ± 0.31
64 | TGGTATTTTGATGATAAAAGGAAATTTTTTTTATAC [XGTACX_negctrl_site111] | 8.27 ± 0.32
65 | GTTAGCATATTAAGTTGTACACAATTATTCTTCAAT [XGTACX_site8324] | 8.68 ± 0.34
66 | AACAAAGAAAATACATGTACAAAAAATATTAACGAA [XGTACX_site287] | 9.2 ± 0.42

Row | Sequence | gcPBM binding intensity (ln)
67 | AATATAATATAATGCACACATAAACAAAAAAAAAAA [CACACA_site783] | 8.62 ± 0.33
68 | ATTTATGAAAGAAATAGTACACACATAAACATTTGT [XGTACX_site5862] | 8.7 ± 0.47
69 | TATATAAAATATTAATGTACATATAAATATATATAT [XGTACX_site6656] | 9.34 ± 0.26
70 | GTAATTAAAATATATACACACAAAGGCTATTAAATA [CACACA_site1011] | 8.54 ± 0.36
71 | TTTAATACGAATGAGGCACACACCTAGTATACATGC [CACACA_site621] | 8.75 ± 0.4
72 | CAAAATAATATATATACACACACACCGATATATATA [CACACA_site8082] | 8.71 ± 0.52
73 | TTTAATTTTTTTAAAACACACAAATATATATATATA [CACACA_site3898] | 10.06 ± 0.085
74 | TTATTTTTGTGTAAGGTGCTATATATAATGTTTTTA | 8.68 ± 0.38
75 | AAAAAGGATAAACACACACACACACCGATATATATA [CACACA_site8206] | 8.86 ± 0.61
76 | AACGAAATCATCAAGTGTACTAGTTTATTATTAATA [XGTACX_site6161] | 8.38 ± 0.42
77 | AAATGTGATATAAGTACACACACATATGTATATATA [CACACA_site8539] | 8.62 ± 0.35
78 | TATGTATATTATATGACACACATTTATATATATATA [CACACA_site1167] | 9.8 ± 0.27
79 | TTTTGTTGATTTATATCTGTAGGGTTTAATATAACA [XGTACX_negctrl_site174] | 8.29 ± 0.47
80 | AATAAATAAATAAATATATATATATATATATATATG [CACACA_negctrl_site899] | 8.655 ± 0.064
81 | AAAATAAAATAAAACACAAAAAAATAAAACAAAATA [CACACA_negctrl_site16] | 8.71 ± 0.47
82 | AAATAAAATATATACATATATATATTATTTAGTAAT [XGTACX_negctrl_site375] | 8.05 ± 0.45
83 | AAATATGTTTATATATGTACTTATAATTCAAAATAT [XGTACX_site2167] | 8.11 ± 0.23
84 | TATATATCCATGTGTACACACAAAAAAAAATAAAGT [CACACA_site7107] | 9.02 ± 0.38
85 | TCTATGCGTTTTAATAGTACATATAAAATTTATACA [XGTACX_site6986] | 8.47 ± 0.3
86 | TAATTAACAAACTATAGTACACAAAATACTTCATAT [XGTACX_site6375] | 8.66 ± 0.34
87 | ATATACACACATAAGTGTACTTATATTTCATATATA [XGTACX_site8646] | 8.39 ± 0.35
88 | CCATGTCACAATTTTTCACACACAAAATTTATATAC [CACACA_site8628] | 8.82 ± 0.42
